Reference: patent US20170258835A1 (University of Pennsylvania, published 2017)

Biological target: T1, PD1-Z CLEAR
T1 construct: PD1 based chimeric receptor on RNA electroporated T cells; also called PD1 CLEAR (zeta alone)
Test: flow cytometry, T cells 18 h after co-electroporation of PD1-Z RNA and bi-specific antibody RNA, stained with anti-mouse IgG Fab PE and anti-PD1 APC; same quadrant in the controls: EP16 PD1-Z alone 2.42, EP20 No RNA 0.086

T1 sequence (chain, as listed by the source limits assumed): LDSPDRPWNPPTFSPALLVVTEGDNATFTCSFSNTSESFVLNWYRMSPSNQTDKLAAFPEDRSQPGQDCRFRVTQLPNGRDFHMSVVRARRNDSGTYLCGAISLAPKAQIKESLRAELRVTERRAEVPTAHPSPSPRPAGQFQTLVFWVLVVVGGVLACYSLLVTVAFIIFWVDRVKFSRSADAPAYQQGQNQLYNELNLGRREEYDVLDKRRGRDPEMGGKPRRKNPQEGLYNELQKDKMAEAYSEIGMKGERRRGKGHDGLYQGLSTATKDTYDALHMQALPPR

percent of cells PD1+ mIgG Fab+ (upper right quadrant): 29.2
B1: 4A11.4D5 bi-specific antibody (bispecific antibody)
chain: DIQMTQSPSSLSASVGDRVSITCRASQGISSWLAWYQQKPEKAPKSLIYAASNLRSGVPSRFSGSGSGTDFTLTISSLQPEDFATYYCQQYYSYPRTFGQGTKVEIKGGGGSGGGGSGGGGSQLQLQESGPGLVKPSETLSLTCTVSGGSLSRSSFFWGWIRQPPGKGLEWIGSIYYSGSTYYNPSLKSRVTISVDTSKNQFSLKLSSVTAADTAVYYCVRDYDILTGDEDYWGQGTLVTVSSGGGGS[skipping about 100 residues]RTGSTSGSGKPGSGEGS[skipping about 120 residues]
notes: co-electroporated with PD1-Z
